In PMC6919601, “Identification of Plasmodium dipeptidyl aminopeptidase allosteric inhibitors by high throughput screening” (PLoS ONE, 2019):
Hit rate of the full screen: of about 110,000 compounds, about 230 (0.21%) showed an effect of 50% or more. This is one part of the list.

Biological target: DPAP1 (Plasmodium falciparum, UniProt Q8IIJ9)
Assay: primary screen, percent inhibition; read by cleavage of a fluorogenic dipeptide substrate; higher = more effect of the substance
Set-up: species or system P. falciparum D10 trophozoite lysates; single well
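Further: 30 min substrate incubation versus DMSO and 10 µM JCP410 controls.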

Sequence of DPAP1 (Q8IIJ9 whole entry, looked up): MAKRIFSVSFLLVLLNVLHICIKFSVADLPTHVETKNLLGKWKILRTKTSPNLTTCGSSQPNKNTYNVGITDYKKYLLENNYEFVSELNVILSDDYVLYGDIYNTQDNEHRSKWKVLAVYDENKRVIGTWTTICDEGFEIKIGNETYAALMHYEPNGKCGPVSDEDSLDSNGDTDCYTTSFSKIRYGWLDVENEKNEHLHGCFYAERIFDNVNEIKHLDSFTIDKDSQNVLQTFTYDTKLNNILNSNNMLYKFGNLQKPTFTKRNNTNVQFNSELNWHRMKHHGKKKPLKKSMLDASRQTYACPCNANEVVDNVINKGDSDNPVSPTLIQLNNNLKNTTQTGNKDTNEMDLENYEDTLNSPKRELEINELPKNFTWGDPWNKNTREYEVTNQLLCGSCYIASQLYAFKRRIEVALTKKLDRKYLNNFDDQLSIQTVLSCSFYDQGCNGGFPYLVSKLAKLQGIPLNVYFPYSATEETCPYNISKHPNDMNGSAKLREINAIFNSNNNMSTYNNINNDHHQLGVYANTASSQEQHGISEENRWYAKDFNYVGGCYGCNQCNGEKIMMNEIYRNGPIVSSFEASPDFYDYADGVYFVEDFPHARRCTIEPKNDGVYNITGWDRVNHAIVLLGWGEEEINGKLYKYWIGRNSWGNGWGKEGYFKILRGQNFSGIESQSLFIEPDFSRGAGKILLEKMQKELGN

SMILES	% Inhibition @ 10 uM [%]
CSc1ccc(/C=C2\CC/C(=C\C(C)C)C2=O)cc1	1.83
COC(=O)c1noc(-c2ccc(C)cc2)n1	-3.53
CCOC(=O)c1ccc(-c2ccc(C=C3C(=O)OC(C)(C(C)(C)C)OC3=O)o2)cc1 (stereo not drawn)	25.7
CCNC(=O)/C=C1\NC(C)(C)Cc2c1ccc1ccccc21	2.17
Oc1ccccc1Cn1c(-c2ccccc2O)nc2ccccc21	1.64
COC(=O)C1=C(C)OC(N)=C(C#N)C1c1cccc(C(F)(F)F)c1 (stereo not drawn)	25.7
COCCNC(=O)Cn1ncc2c3ccccc3n(C)c2c1=O	-9.31
COc1ccc(-c2cc(N)n(S(=O)(=O)c3c(F)c(F)c(F)c(F)c3F)n2)cc1OC	8.53
Cc1cc(NC(=O)C(=O)c2cn(C)c3ccccc23)no1	-0.403
C=CCOc1ccc(C=C2C(=O)OC(C)(C(C)(C)C)OC2=O)cc1 (stereo not drawn)	0.146
Cc1[nH]c2ccccc2c1C(c1cccs1)N1CCCC1 (stereo not drawn)	6.73
CCS(=O)(=O)C1=NSC2=NC(=O)/C(=C\c3cc(C)n(-c4ccc(C)cc4)c3C)C(=N)N21	-3.39
Cc1ccc(C)c(C(C)NC(=O)c2cnccn2)c1 (stereo not drawn)	4.44
O=c1oc(-c2ccccc2)nc2sc3c(c12)CCC3	1.63
Cc1ccc(Nc2nc(-c3ccc(Br)cc3)cs2)cc1	-2
COc1ccc(NC(=O)C23CC4CC(C2)CC(n2cnc(Br)n2)(C4)C3)c(C)c1	-2.37
CN1C2CCC1/C(=C\c1ccco1)C(=O)/C2=C\c1ccco1	5.5
CCCC[C@H](NC(=O)[C@@H](NC(=O)c1ccc(CNC(=O)OC(C)(C)C)cc1)[C@H](C)CC)C(=O)CO	3.48
O=C(Nc1nc2ccccc2s1)C1c2ccccc2C(=O)N2CCc3ccccc3C12 (stereo not drawn)	-0.591
COc1ccccc1N(CC(=O)NC1CCCC1)S(C)(=O)=O	4.08
CCN1CCN(CC#Cc2cccc([C@@H](CC(C)C)C(=O)NCC#N)c2)CC1	-4.72
N#CC1=C(N)Oc2cc(N)ccc2C1c1ccc(Cl)cc1Cl (stereo not drawn)	7.65
O=C(C1CCCN1S(=O)(=O)c1cccc2nsnc12)N1CCN(c2ccccn2)CC1 (stereo not drawn)	-8.02
CNC(=O)Cn1c(=O)c2cccn2c2cccnc21	-7.87
Cc1cc(-c2ccccc2C(=O)O)on1	-5.2

SMILES	% Inhibition @ 10 uM [%]
Cc1ccc(S(=O)(=O)N2CC=C(C(=O)NCC3CCCO3)CC2)cc1 (stereo not drawn)	-0.406
CC(C)CCn1c(=O)c2ccccc2n2c(CCC(=O)NCCC3=CCCCC3)nnc12	17.1
Cc1cc(-c2noc(-c3cccc(Br)c3)n2)c2ccccc2n1	2.99
Cc1ccc2nc(NC(=O)CSc3nc(C)cc(C)n3)sc2c1	0.823
CC(C)C[C@H](NC(=O)c1cc(-c2cccnc2)c(Cl)s1)C(=O)NCC#N	-3.48
C#CCOc1ccc(C2C3=C(CCCC3=O)OC3=C2C(=O)CCC3)cc1Cl	1.83
COc1ccc(NC(=O)Cc2ccc(F)cc2F)cc1	-2.18
CCOC(=O)c1c(C)c(C(=O)NC2CCCCC2C)c(C)n1C (stereo not drawn)	1.72
Cc1nc2ccc(Cl)cc2c(=O)n1-c1nc2ccccc2s1	-3.18
COc1ccc(-c2onc(C)c2C)cc1S(=O)(=O)N1CCN(Cc2ccccc2)CC1	-1.88
Cc1cccnc1NC(=O)NCc1noc2ccccc12	1.41
COc1ccc(S(=O)(=O)NCc2ccncc2)c(Cl)c1Cl	7.67
Cn1nc(C(=O)NCc2ccco2)c2c1-c1ccccc1SC2	30.8
COc1cccc(C(=O)N2CCN(Cc3ccc(F)cc3)CC2)c1OC	1.71
COCCNC(=O)/C(C#N)=C/c1c(Oc2cccc(C)c2C)nc2c(C)cccn2c1=O	0.315
COC(=O)c1ccccc1S(=O)(=O)NCc1nc2nc(C)cc(C)n2n1	2.84
CC(=O)C1C(=O)C=C(c2cccs2)CC1c1ccccc1 (stereo not drawn)	-1.48
Nc1ccc(CN2C(=O)c3ccccc3C2=O)cc1	-4.02
O=C(Nc1ccc(F)cc1)c1cc2ccccc2o1	-0.318
COc1ccccc1CNC(=O)CCCc1nnc2n3nc(-c4ccccc4)nc3c3ccccc3n12	3.59
COC(=O)c1cc2oc3ccccc3c2[nH]1	-7.02
CSc1ncc(C(=O)O)c(C(F)(F)F)n1	4.87
COc1cc(OC)cc(C(=O)N2CCN(c3cccc(C)c3C)CC2)c1	1.83
COc1cc(/C=C/c2nc(C#N)c(NCC3CCCO3)o2)cc(OC)c1OC (stereo not drawn)	-4.39
CCOP1(=S)Oc2cc(Cl)ccc2C(C(F)(F)F)(C(F)(F)F)O1 (stereo not drawn)	1.84

SMILES	% Inhibition @ 10 uM [%]
O=C(Nc1ccc(-c2cn3cccnc3n2)cc1)c1ccccc1Cl	-5.34
CC(C)Sc1ncc(Cl)c(C(=O)Nc2sc3c(c2C(=O)NCc2ccco2)CCC3)n1	-1.16
Cc1ccc(C(=O)O/N=C(\N)CC(N)=O)cc1	-0.326
COc1ccc(-c2nc(CSCC(=O)NCc3ccc4c(c3)OCO4)c(C)o2)cc1	-2.85
CCOC(=O)N1CCC(NC(=O)C2CCN(c3nnc(-n4cccc4)s3)CC2)CC1	1.15
CCCCOC(=O)c1sc2nc(N)c(C#N)c(-c3ccc(OC)c(OC)c3)c2c1N	3.54
CC(=O)N1CCc2c(sc3nc(SCc4cc(C)ccc4C)n(Cc4ccco4)c(=O)c23)C1	2.97
Cc1ccc(S(=O)(=O)Nc2ccc(NC(=O)C3CC=CCC3C(=O)O)cc2)cc1 (stereo not drawn)	-4.21
Cc1[nH]nc2c1C(c1ccccc1OCc1ccccc1Cl)C(C#N)=C(N)O2 (stereo not drawn)	4.07
Clc1ccc(-c2nnc3ccc(N4CCCCC4)nn23)cc1	3.8
O=Cc1c(-c2ccc(F)cc2)nc2ccccn12	-2.5
CS(=O)(=O)C1=NSC2=NC(=O)/C(=C\c3ccc(SC4CCCCC4)o3)C(=N)N21	-1.28
CCOc1ccc(N2C(=O)CC(NCC3CCCCC3)C2=O)cc1 (stereo not drawn)	-7.22
COc1cc(OC)cc(-n2nnc(-c3nc(-c4cccs4)no3)c2N)c1	5.22
CCOc1ccc(-c2csc(C3COc4ccccc4O3)n2)cc1 (stereo not drawn)	-0.636
COc1cc(S(=O)(=O)NCCOC23CC4CC(CC(C4)C2)C3)c(C)cc1C	-1.72
CC(C)Cn1c2ccccc2c2cc(C(=O)O)ccc21	0.565
COc1ccc(-c2nnn(CC(=O)Nc3sc4c(c3C#N)CCC(C(C)(C)C)C4)n2)cc1 (stereo not drawn)	-7.8
COc1ccc(NC(=O)c2ccco2)cc1OC	-2.36
Cc1cc(C)c(Cn2c(CCCO)nc3ccccc32)c(C)c1	4.3
COC(=O)c1ccc(C2c3c(oc4cc(C)c(C)cc4c3=O)C(=O)N2c2nccs2)cc1 (stereo not drawn)	2.1
CCOc1ccc(-c2nc3s/c(=C\c4ccc(C)o4)c(=O)n3n2)cc1	2.17
Cc1cc(C)n2nc(CNS(=O)(=O)c3c(F)c(F)c(F)c(F)c3F)nc2n1	-2.17
COc1ccccc1C(=O)Nc1cccc(Cl)c1C	0.467
O=C(c1cc2n(n1)C(C(F)(F)F)CC(c1ccc(Br)cc1)N2)N1CCOCC1 (stereo not drawn)	-4.12

SMILES	% Inhibition @ 10 uM [%]
FC(F)(F)c1ccccc1CN1CCN(Cc2ccco2)CC1	-6.36
CN1CCN(C(c2ccccn2)c2ccc3cccnc3c2O)CC1 (stereo not drawn)	-3.33
COC(=O)c1sc2nc(-c3cccs3)cc(C(F)(F)F)c2c1N	0.912
CCCCCc1ccc(CC(=O)O)cc1	2.7
CCN(CC)C(=O)C1CCN(S(=O)(=O)c2ccccc2)CC1	4.28
COc1cc(OC)cc(-c2cc3nc(C)c(CCC(=O)NCCC4=CCCCC4)c(C)n3n2)c1	-0.465
CCOC(=O)c1c(S(=O)(=O)N2CCC(C)CC2)c(C)n(C)c1C	2.01
COc1ccc(/C=N/OCC(=O)N2CC3(C)CC2CC(C)(C)C3)cc1 (stereo not drawn)	3.59
O=C1N/C(=C/c2ccc(Cl)cc2Cl)C(=O)N1c1ccccc1	-1.63
CS(=O)(=O)c1ccc2nc(NC(=O)c3cccc(Cl)c3)sc2c1	6.19
CN(Cc1ccccc1)C(=O)c1ccco1	-0.687
O=S(=O)(c1ccc(Cl)cc1)N(CCCN1CCOCC1)Cc1cccs1	-4.97
c1ccc(OCC2=NN=C(COc3ccccc3)NN2)cc1	-5.28
CN(C)CCCNC(=O)c1cccc(COc2cccc3ccccc23)c1	-0.478
O=S(=O)(NCCc1ccncc1)c1ccc(F)cc1	0.13
Cn1c2c(c(=O)n(C)c1=O)C(C(F)(F)F)(C(F)(F)F)NC(Cc1ccccc1)=N2	-0.132
Cc1ccc(OCC(=O)N(Cc2ccc(C(C)C)cc2)C2CCS(=O)(=O)C2)cc1 (stereo not drawn)	-1.33
CC(C)(C)O[C@H]1CCC[C@H]2CC(=O)CC[C@@]21C	2.51
CCOc1ccc(N2C(=O)CC(N3CCCC(C)C3)C2=O)cc1 (stereo not drawn)	0.138
COc1ccc(-c2nc3n(n2)C(c2ccc(Cl)cc2)C2=C(O)CCCC2=N3)cc1OC (stereo not drawn)	3.59
CCc1c(O)nc(SC(C)CC)n(C(C)CC)c1=O (stereo not drawn)	-6.12
CC(C)NC(=O)c1cnn2c1NC(c1cccs1)CC2C(F)(F)F (stereo not drawn)	-8.38
CCc1ccc(Cc2cnc(NC(=O)c3cc4ccccc4c(=O)o3)s2)cc1	3.54
CCC(C)NC(=O)c1ccc(C2SCC(=O)N2CCc2ccccc2)cc1 (stereo not drawn)	1.94
